{
  "source": "PubChem BioAssay AID463173",
  "about": "(ICCB-Longwood Screening Facility, Harvard Medical School, 2010)",
  "note": "Among all 52,000 compounds or so, about 1,700 (3.3%) were called active. No stated cut-off is given here; in the data, active means survival mostly below about 52% (no sharp cut-off); inactive means mostly above about 56%. Some of the results follow.",
  "data": [
    {"test_system": "Wild type", "experiment": "growth inhibition of S. aureus wild type versus tarO mutant, primary screen, teichoic acid synthesis inhibitors, RN4220, OD600 (AID 463173)", "details": "S. aureus RN4220 wild type/DeltatarO growth, OD600, 18 h, active compounds read low, screened at 18.75 µg/mL (by protocol)", "values": [
      {"smiles": "Cc1nc(N2CCOCC2)c2c(C(=O)N(C)c3ccccc3)c(C)oc2n1", "survival": "inactive: 75%"},
      {"smiles": "CC(C)Cc1nn2c(=O)cc(COC(=O)c3cccc(NS(C)(=O)=O)c3)nc2s1", "survival": "inactive: 105%"},
      {"smiles": "COc1cc(CSc2ncc(CO)n2Cc2ccc(C)cc2)cc(OC)c1", "survival": "inactive: 76%"},
      {"smiles": "COc1ccc(NC(=O)c2ccccc2C(=O)N2CCCCC2)cc1", "survival": "inactive: 109%"},
      {"smiles": "Cc1ccc(CNC(=O)CN2CCC(n3nnc4cc(C)ccc43)CC2)cc1", "survival": "inactive: 102%"},
      {"smiles": "CC(C)c1ccc2nc(SCC(=O)NC(C)(C)C)c(C#N)cc2c1", "survival": "inactive: 113%"},
      {"smiles": "c1ccc(CN(Cc2cccs2)C(c2cccs2)c2nnnn2C2CCCC2)cc1", "note": "(stereo not drawn)", "survival": "inactive: 116%"},
      {"smiles": "COc1ccc(CNC(=O)CCCN2C(=O)CCn3nc(-c4cn(C)c5ccccc45)cc32)cc1", "survival": "inactive: 85%"},
      {"smiles": "Cc1c(Cl)cccc1NC(=O)CSc1nc(=O)[nH]c2c1CCCC2", "survival": "inactive: 54%"},
      {"smiles": "O=C(NCCc1ccc(Cl)cc1)C1(c2cccs2)CCOCC1", "survival": "inactive: 72%"},
      {"smiles": "Cc1ccc(-n2c(=O)c3cccnc3n2CC(=O)Nc2ccc(C)cc2Cl)cc1", "survival": "inactive: 113%"},
      {"smiles": "O=C(NCCC1=CCCCC1)C1CCN(C(=O)N2CCOc3ccccc32)CC1", "survival": "inactive: 86%"},
      {"smiles": "COc1ccc(OC)c(NC(=O)Cn2ncc3c2-c2ccccc2OC3)c1", "survival": "inactive: 74%"},
      {"smiles": "Cc1cccc(-c2nc(CS(=O)CC(=O)NCc3ccc(Cl)cc3)c(C)o2)c1", "note": "(stereo not drawn)", "survival": "inactive: 84%"},
      {"smiles": "O=C1CN(C(=O)c2ccc(S(=O)(=O)N3CCCCC3)cc2)C(c2ccc(F)cc2)c2cc(Cl)ccc2N1", "note": "(stereo not drawn)", "survival": "inactive: 86%"},
      {"smiles": "O=C(NCCc1ccccc1)c1ccc(CSc2nc3cccnc3n2Cc2ccccc2F)cc1", "survival": "inactive: 81%"},
      {"smiles": "COc1ccc(C2=C(C)C(=O)N(Cc3ccc(C(=O)Nc4ccc(F)cc4C)cc3)S2(=O)=O)cc1", "survival": "inactive: 55%"},
      {"smiles": "CCN(CC)CCn1c(=N)n(CCOc2ccccc2Cl)c2ccccc21", "survival": "inactive: 69%"},
      {"smiles": "CCOC(=O)c1cc(-c2ccccc2)n(CC(=O)NCc2ccc(C)cc2)c1C", "survival": "inactive: 32%"},
      {"smiles": "COc1cccc(-c2cn3c(n2)sc2cc(C(=O)NCc4ccccc4F)ccc23)c1", "survival": "inactive: 63%"},
      {"smiles": "O=C(NCC(c1cccnc1)N1CCOCC1)C(=O)Nc1ccc(Cl)cc1", "note": "(stereo not drawn)", "survival": "inactive: 84%"},
      {"smiles": "COc1ccc(-c2[nH]ncc2C(=O)NCc2cccc(Cl)c2)cc1", "survival": "inactive: 66%"},
      {"smiles": "CCOC(=O)c1c(C)oc2nc(C)nc(NCC3CCN(Cc4ccccc4C)CC3)c12", "survival": "inactive: 93%"},
      {"smiles": "Cc1ccc2nc(-c3cccc(NC(=O)c4cccc5c(Cl)cccc45)c3)oc2c1", "survival": "inactive: 108%"},
      {"smiles": "CCc1ccccc1NC(=O)c1nc(-c2ccncc2)no1", "survival": "inactive: 83%"},
      {"smiles": "Cc1cccc(NC(=O)Cn2c(C(F)(F)F)nc3ccccc32)c1C", "survival": "inactive: 62%"},
      {"smiles": "O=C(NCCc1csc2nc(-c3ccc(F)cc3)nn12)c1ccco1", "survival": "inactive: 126%"},
      {"smiles": "Cc1oc(C(=O)O)cc1CSCc1cc(C(=O)O)oc1C", "survival": "inactive: 108%"},
      {"smiles": "COc1ccc(C)cc1NC(=O)Cn1cc(S(=O)(=O)Cc2ccccc2Cl)c2ccccc21", "survival": "inactive: 92%"},
      {"smiles": "CCOc1cc2c(cc1OCC)C(c1c(F)cccc1Cl)CC(=O)N2", "note": "(stereo not drawn)", "survival": "inactive: 85%"},
      {"smiles": "CC1CCN(S(=O)(=O)c2cc(C(=O)Nc3ccc(Br)cc3F)n(C)c2)CC1", "survival": "inactive: 77%"},
      {"smiles": "COC(=O)c1cc(NC(=O)CCc2c(C)nc3cc(-c4ccccc4)nn3c2C)cc(C(=O)OC)c1", "survival": "inactive: 123%"},
      {"smiles": "Cc1ccc(-c2cc(C(=O)N3CCN(c4ccccc4)CC3)c3ccccc3n2)cc1C", "survival": "inactive: 132%"},
      {"smiles": "CCOc1ccccc1CNS(=O)(=O)c1csc(C(N)=O)c1", "survival": "inactive: 54%"},
      {"smiles": "CCOC(=O)c1c(S(=O)(=O)N2CCC(C(=O)N3CCN(c4cc(C)ccc4C)CC3)CC2)c(C)n(C)c1C", "survival": "inactive: 70%"},
      {"smiles": "Cc1sc2c(c1C)c(=O)n(-c1ccc(Cl)cc1)c(=O)n2Cc1c(F)cccc1Cl", "survival": "inactive: 69%"},
      {"smiles": "COc1cc(C2C(C(=O)Nc3ccccc3)=C(C)Nc3nc(SCc4ccccc4F)nn32)cc(OC)c1OC", "note": "(stereo not drawn)", "survival": "inactive: 144%"},
      {"smiles": "Cc1ccc(Cn2c(CCCNC(=O)C3CCCCC3)nc3ccccc32)cc1", "survival": "inactive: 119%"},
      {"smiles": "O=C(Cn1ncc2c(Cl)cccc21)NCc1cccc(Br)c1", "survival": "inactive: 129%"},
      {"smiles": "O=C(NC1CCCCC1)c1ccc(CSc2nc3cccnc3n2Cc2ccccc2F)cc1", "survival": "inactive: 74%"},
      {"smiles": "COc1ccc(C(=O)NCCSc2ccccn2)cc1", "survival": "inactive: 95%"},
      {"smiles": "Cc1ccc(N2CC(NC(=O)C(=O)c3c[nH]c4ccccc34)CC2=O)cc1", "note": "(stereo not drawn)", "survival": "inactive: 99%"},
      {"smiles": "CC(C)CCNC(=O)c1ccc2c(c1)N(Cc1ccccc1F)C(=O)c1ccccc1S2=O", "note": "(stereo not drawn)", "survival": "inactive: 94%"},
      {"smiles": "COc1ccccc1OCC(=O)NCC1(N(C)C)CCCCC1", "survival": "inactive: 87%"},
      {"smiles": "CCN(CC)c1ncnc(Cl)c1Cc1ccc(OC)cc1", "survival": "inactive: 120%"},
      {"smiles": "Oc1ccc(NCc2ccc(OCc3ccccc3Cl)cc2)cc1", "survival": "active: -4%"},
      {"smiles": "O=C(CSc1nc(=O)n(Cc2cccnc2)c2c1CCC2)Nc1ccc(F)cc1F", "survival": "inactive: 83%"},
      {"smiles": "Cc1ccc(Cc2nc3ccccc3nc2SCC(=O)N2CCCCC2C)cc1", "note": "(stereo not drawn)", "survival": "inactive: 110%"},
      {"smiles": "COC(=O)c1cccc(NC(=O)Nc2cc(C(=O)NCc3cccc(F)c3)ccc2N2CCCC2)c1", "survival": "inactive: 77%"},
      {"smiles": "N#C/C(=C\\c1c(Oc2ccc(Br)cc2)nc2ccccn2c1=O)c1nc2ccccc2s1", "survival": "inactive: 126%"},
      {"smiles": "CCCCN1CCc2nc(N3CCN(C)CC3)ncc2C1", "survival": "inactive: 81%"},
      {"smiles": "O=C(NCCc1csc(-c2cccnc2)n1)c1ccc(F)c(F)c1", "survival": "inactive: 133%"},
      {"smiles": "CC(=O)N1CCc2cc(Br)cc(S(=O)(=O)N3CCN(c4cccc(C)c4)C(C)C3)c21", "note": "(stereo not drawn)", "survival": "inactive: 77%"},
      {"smiles": "COc1ccc(N2CCN(C(=O)CS(=O)(=O)c3cccc4nsnc34)CC2)cc1", "survival": "inactive: 136%"},
      {"smiles": "COc1ccc(Cl)cc1NC(=O)c1cc(C)nn1-c1ccccc1", "survival": "inactive: 81%"},
      {"smiles": "COc1cccc(N2CCN(S(=O)(=O)c3ccc4c(c3)CCCN4C(C)=O)CC2)c1", "survival": "inactive: 88%"},
      {"smiles": "CCOC(=O)c1c(NC(=O)c2cc(=O)c3ccc(C)cc3o2)sc(C)c1C", "survival": "inactive: 111%"},
      {"smiles": "COc1ccc(CCN2CCC(CNC(=O)c3cnn(-c4ccccc4)c3C3CCN(C(=O)OC(C)(C)C)CC3)CC2)cc1", "survival": "inactive: 97%"}
    ]}
  ]
}
